Source: PMC9911399, “Two distinct binding modes provide the RNA-binding protein RbFox with extraordinary sequence specificity”
Changes are numbered by the printed parent chain; changes in the protein carry UniProt numbers. Some of the results follow.

T1: RBFOX1 RRM RbFoxmut (Fox-RRM*) (Homo sapiens, UniProt Q9NWB1 109-208, R118D;E147R;N151S;E152T)
T1 sequence: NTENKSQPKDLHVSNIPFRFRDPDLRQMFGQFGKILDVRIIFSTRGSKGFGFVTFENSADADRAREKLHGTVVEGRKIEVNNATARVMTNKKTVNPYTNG

B1: CUAGUCG (DNA:RNA)
RNA: GGGAGACCGGAAUUCAGAUUGUCCCUAGUCGUUAAAUCCCGUCGUAGCCACCA
DNA 1: CAATCTGAATTCCGGTCTCCC
DNA 2: TGGTGGCTACGACGGGATT
B2: AGCUAAG (DNA:RNA)
RNA: B1 RNA with C25A, U26G, A27C, G28U, U29A, C30A
DNA 1: CAATCTGAATTCCGGTCTCCC
DNA 2: TGGTGGCTACGACGGGATT
B3: AUCUUGG (DNA:RNA)
RNA: B1 RNA with C25A, A27C, G28U, C30G
DNA 1: CAATCTGAATTCCGGTCTCCC
DNA 2: TGGTGGCTACGACGGGATT
B4: AACCCAU (DNA:RNA)
RNA: GGGAGACCGGAAUUCAGAUUGUCCAACCCAUUUAAAUCCCGUCGUAGCCACCA
DNA 1: CAATCTGAATTCCGGTCTCCC
DNA 2: TGGTGGCTACGACGGGATT
B5: AAGGUUC (DNA:RNA)
RNA: B4 RNA with C27G, C28G, C29U, A30U, U31C
DNA 1: CAATCTGAATTCCGGTCTCCC
DNA 2: TGGTGGCTACGACGGGATT
B6: CGAGCGA (DNA:RNA)
RNA: B1 RNA with U26G, U29C, C30G, G31A
DNA 1: CAATCTGAATTCCGGTCTCCC
DNA 2: TGGTGGCTACGACGGGATT
B7: GCUAGCG (DNA:RNA)
RNA: B1 RNA with C25G, U26C, A27U, G28A, U29G
DNA 1: CAATCTGAATTCCGGTCTCCC
DNA 2: TGGTGGCTACGACGGGATT
B8: GCGACAG (DNA:RNA)
RNA: B4 RNA with A25G, A26C, C27G, C28A, U31G
DNA 1: CAATCTGAATTCCGGTCTCCC
DNA 2: TGGTGGCTACGACGGGATT
B9: UGAUAUU (DNA:RNA)
RNA: B4 RNA with A25U, A26G, C27A, C28U, C29A, A30U
DNA 1: CAATCTGAATTCCGGTCTCCC
DNA 2: TGGTGGCTACGACGGGATT
B10: ACGAUAU (DNA:RNA)
RNA: B4 RNA with A26C, C27G, C28A, C29U
DNA 1: CAATCTGAATTCCGGTCTCCC
DNA 2: TGGTGGCTACGACGGGATT
B11: CACGGUG (DNA:RNA)
RNA: B1 RNA with U26A, A27C, U29G, C30U
DNA 1: CAATCTGAATTCCGGTCTCCC
DNA 2: TGGTGGCTACGACGGGATT
B12: CCCAUAC (DNA:RNA)
RNA: B4 RNA with A25C, A26C, C28A, C29U, U31C
DNA 1: CAATCTGAATTCCGGTCTCCC
DNA 2: TGGTGGCTACGACGGGATT
B13: CAGUCCU (DNA:RNA)
RNA: B4 RNA with A25C, C27G, C28U, A30C
DNA 1: CAATCTGAATTCCGGTCTCCC
DNA 2: TGGTGGCTACGACGGGATT
B14: UAACCCA (DNA:RNA)
RNA: B4 RNA with A25U, C27A, A30C, U31A
DNA 1: CAATCTGAATTCCGGTCTCCC
DNA 2: TGGTGGCTACGACGGGATT
B15: GGGACAG (DNA:RNA)
RNA: B4 RNA with A25G, A26G, C27G, C28A, U31G
DNA 1: CAATCTGAATTCCGGTCTCCC
DNA 2: TGGTGGCTACGACGGGATT
B16: GGUAAGG (DNA:RNA)
RNA: B1 RNA with C25G, U26G, A27U, G28A, U29A, C30G
DNA 1: CAATCTGAATTCCGGTCTCCC
DNA 2: TGGTGGCTACGACGGGATT
B17: UAUGGAA (DNA:RNA)
RNA: B4 RNA with A25U, C27U, C28G, C29G, U31A
DNA 1: CAATCTGAATTCCGGTCTCCC
DNA 2: TGGTGGCTACGACGGGATT
B18: AUUUUUA (DNA:RNA)
RNA: B1 RNA with C25A, A27U, G28U, C30U, G31A
DNA 1: CAATCTGAATTCCGGTCTCCC
DNA 2: TGGTGGCTACGACGGGATT
B19: GAUUUAG (DNA:RNA)
RNA: B4 RNA with A25G, C27U, C28U, C29U, U31G
DNA 1: CAATCTGAATTCCGGTCTCCC
DNA 2: TGGTGGCTACGACGGGATT
B20: AGUAUUU (DNA:RNA)
RNA: B4 RNA with A26G, C27U, C28A, C29U, A30U
DNA 1: CAATCTGAATTCCGGTCTCCC
DNA 2: TGGTGGCTACGACGGGATT
B21: CGCAUAG (DNA:RNA)
RNA: B1 RNA with U26G, A27C, G28A, C30A
DNA 1: CAATCTGAATTCCGGTCTCCC
DNA 2: TGGTGGCTACGACGGGATT
B22: UAGUAUU (DNA:RNA)
RNA: B4 RNA with A25U, C27G, C28U, C29A, A30U
DNA 1: CAATCTGAATTCCGGTCTCCC
DNA 2: TGGTGGCTACGACGGGATT
B23: GGGUCGG (DNA:RNA)
RNA: B4 RNA with A25G, A26G, C27G, C28U, A30G, U31G
DNA 1: CAATCTGAATTCCGGTCTCCC
DNA 2: TGGTGGCTACGACGGGATT
B24: AAUUAGU (DNA:RNA)
RNA: B4 RNA with C27U, C28U, C29A, A30G
DNA 1: CAATCTGAATTCCGGTCTCCC
DNA 2: TGGTGGCTACGACGGGATT
B25: UGAGCGG (DNA:RNA)
RNA: B1 RNA with C25U, U26G, U29C, C30G
DNA 1: CAATCTGAATTCCGGTCTCCC
DNA 2: TGGTGGCTACGACGGGATT
B26: UAAAGCU (DNA:RNA)
RNA: B4 RNA with A25U, C27A, C28A, C29G, A30C
DNA 1: CAATCTGAATTCCGGTCTCCC
DNA 2: TGGTGGCTACGACGGGATT
B27: UGUUGGA (DNA:RNA)
RNA: GGGAGACCGGAAUUCAGAUUGUCCUGUUGGAUUAAAUCCCGUCGUAGCCACCA
DNA 1: CAATCTGAATTCCGGTCTCCC
DNA 2: TGGTGGCTACGACGGGATT
B28: UAUACGU (DNA:RNA)
RNA: B4 RNA with A25U, C27U, C28A, A30G
DNA 1: CAATCTGAATTCCGGTCTCCC
DNA 2: TGGTGGCTACGACGGGATT
B29: AUCAACA (DNA:RNA)
RNA: B4 RNA with A26U, C28A, C29A, A30C, U31A
DNA 1: CAATCTGAATTCCGGTCTCCC
DNA 2: TGGTGGCTACGACGGGATT
B30: AUACGCA (DNA:RNA)
RNA: B1 RNA with C25A, G28C, U29G, G31A
DNA 1: CAATCTGAATTCCGGTCTCCC
DNA 2: TGGTGGCTACGACGGGATT
B31: ACCAGUG (DNA:RNA)
RNA: B4 RNA with A26C, C28A, C29G, A30U, U31G
DNA 1: CAATCTGAATTCCGGTCTCCC
DNA 2: TGGTGGCTACGACGGGATT

These binders were tested against T1, RBFOX1 RRM RbFoxmut (Fox-RRM*) (assay: EMSA; HiTS-Eq, 1 nM pool, 10 min; buffer printed only for the single-RNA assays: 10 mM Tris pH 7.5, 150 mM NaCl, 3.4 mM EDTA, 0.001% NP-40, 30 C). Conditions: tags: His6 N-terminal (pET28a); label: 5' 32P.
How it was run: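 Purified wild-type or mutant RbFox RRM at increasing concentrations was equilibrated with 1 nM of 5′-radiolabelled RNA carrying 7 randomized nucleotides for 10 min in 50 µL. Unbound RNA was separated by 8% native PAGE and sequenced. Relative association constants came from read-count changes of each RNA species compared with the control reaction, normalised to the cognate motif.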

Binder	binding signal
B1	0.085 KA relative to UGCAUGU
B2	0.124 KA relative to UGCAUGU
B3	0.0984 KA relative to UGCAUGU
B4	0.0847 KA relative to UGCAUGU
B5	0.0982 KA relative to UGCAUGU
B6	0.0809 KA relative to UGCAUGU
B7	0.114 KA relative to UGCAUGU
B8	0.086 KA relative to UGCAUGU
B9	0.0838 KA relative to UGCAUGU
B10	0.114 KA relative to UGCAUGU
B11	0.131 KA relative to UGCAUGU
B12	0.0589 KA relative to UGCAUGU
B13	0.0911 KA relative to UGCAUGU
B14	0.0992 KA relative to UGCAUGU
B15	0.0862 KA relative to UGCAUGU
B16	0.0619 KA relative to UGCAUGU

Binder	binding signal
B17	0.0852 KA relative to UGCAUGU
B18	0.148 KA relative to UGCAUGU
B19	0.111 KA relative to UGCAUGU
B20	0.148 KA relative to UGCAUGU
B21	0.136 KA relative to UGCAUGU
B22	0.12 KA relative to UGCAUGU
B23	0.137 KA relative to UGCAUGU
B24	0.113 KA relative to UGCAUGU
B25	0.0658 KA relative to UGCAUGU
B26	0.0622 KA relative to UGCAUGU
B27	0.0795 KA relative to UGCAUGU
B28	0.0788 KA relative to UGCAUGU
B29	0.0956 KA relative to UGCAUGU
B30	0.153 KA relative to UGCAUGU
B31	0.0922 KA relative to UGCAUGU
